The source of these data is the supplement of paper PMC11417369.

The list shows a part of the results.

The test concerns PfSIP2 AP2 domain 1 (GST-tagged). The test can be described thus: gcPBM binding intensity (ln(normalized median fluorescence intensity)); higher = stronger DNA binding. A digest of the protocol:
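Binding of GST-tagged P. falciparum DNA-binding domains, expressed in E. coli and used at about 25 μg on average, was carried out for 1 h in 1× PBS containing 1% milk, 0.2 mg/ml BSA, 0.5% salmon testes DNA and 0.03% Triton X-100. The target was an Agilent 4 × 180k array of primer-extended double-stranded 36-bp intergenic genomic probes plus negative controls, read with Alexa488 anti-GST antibody at 488 nm. Binding intensity is the highest Masliner-normalised natural-log median intensity across replicate spots of either probe orientation.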
“AACTTCTTTTTTATAACACACAAAATATAAATACAA [CACACA_site4313]”: the “gcPBM binding intensity (ln)” value worked out at 7.31. Under “TTTTATATCTAGTTTATATTTCTTAAATAAATAAAT [GTGCAC_negctrl_site245]” stands 6.78; under “AACATATAAATGATATGTACACACATTTATATATAT [XGTACX_site7364]”, 7.88. Under “CAAATTAAATATTATGCATGTACCAAACATCCTACC [TGCATGCA_site35]” stands 7.06. For “TAATACAAAAAGAAAAGTACATGTTAATTATTATTT [XGTACX_site2196]”, the “gcPBM binding intensity (ln)” value was determined as 6.71. Under “ATATATATATATATATGTACATATTTATTTATTTAT [XGTACX_site5161]” stands 9.52. Regarding “AGCACAGACTAATAAACACACACATATATATATATA [CACACA_site8021]”, the “gcPBM binding intensity (ln)” value was found to be 9.49. Under “CTCATTCTTTTTTGATGTACTTTTTTTTTTTAAGTT [XGTACX_site2875]” stands 7.31; under “AAAAGAGAAACATTTACACACAAATATAGATATATG [CACACA_site1027]”, 6.84; under “TTCAATTAAAAAATATGTACGCATAAATTGATATAT [XGTACX_site4289]”, 7.33. Under “TTGTATAATTTAACAAGTACAAAATAAATTTGTATA [XGTACX_site5505]” stands 6.94; under “TTTTATGGAAAGTGTTGTACATATTTTTGTATATGT [XGTACX_site7356]”, 7.12; under “ATAGTATACGGACACACACACACACCGATATATATA [CACACA_site5032]”, 7.44.

Turning to “TTTTATTAATATTATTTATCTTCTCAAAAGATATAT [XGTACX_negctrl_site202]”, the “gcPBM binding intensity (ln)” value worked out at 6.7. Regarding “TATCTTATATTTACACGTACGTAGAATTTATAAGTT [XGTACX_site3460]”, the “gcPBM binding intensity (ln)” value is 7.04. “CACACGTATAAATATACACACTAAAATACACGCACA [CACACA_site7876]”: the “gcPBM binding intensity (ln)” value was 7.87. Under “ATCACAAAATGGAATGTTCTATGATATATATGTATA [XGTACX_negctrl_site460]” stands 7.02; under “TGTAAATATTTATTCACACATAATCAATTAGAAAAA [CACACA_site5944]”, 6.93; under “TTGTTACTGTTTTGGTGTACAAAAAAAAAAAATATA [XGTACX_site5762]”, 7.4. Under “AAAAAAAAAAAAAACACACACACAATAGTATATAAA [CACACA_site957]” stands 7.35; under “TACTTACTTACTTACTCACACACATATACAAAGAAA [CACACA_site3348]”, 7.45; under “AATACAGATAATACAACACACAAGTAATATAAACCT [CACACA_site5900]”, 6.99. Under “TATATATATTTTTATGCACACACAAAGAAAATTTTC [CACACA_site8931]” stands 7.48. Turning to “TATAAATACAGATACACACACACACCGATATATATA [CACACA_site5271]”, the “gcPBM binding intensity (ln)” value was determined as 7.4.

With “AATATATAAATCTATTGTACATAAAGAGGATAATAA [XGTACX_site1022]”, the “gcPBM binding intensity (ln)” value is 7.06. Under “GATGATTATATATATACGCACACTTTTTTTTTTTTT [CACACA_site2652]” stands 7.12; under “AGTAGCATATTCTATTGTACATATATATATATATAT [XGTACX_site2980]”, 9.44. Under “ATTAAAAACGGGTGTACACATATATAAATATATATA [CACACA_site4539]” stands 7.39; under “ATATGTATATATGTATGTACGTACAAATTGTTGTAA [XGTACX_site8832]”, 7.58.

In the case of “TACAAAATAACTAGCACACATATGTATAAACCTATA [CACACA_site3718]”, the “gcPBM binding intensity (ln)” value was 6.99. Under “TGTATAAAGATATATACACACATATTTATTTATATA [CACACA_site6493]” stands 6.88; under “ACCTGAAGAGTCAAACGTACAAATATTATAAAATGA [XGTACX_site3188]”, 6.92. Under “TTAATACATTAAATATGTACTTATATATCTCAACTA [XGTACX_site3997]” stands 6.75.

For the sequence “GTTATATTTTTTTTTTGTACATAATATTGTATTGAC [XGTACX_site6338]”, the “gcPBM binding intensity (ln)” value was determined as 7.18. Under “TCATCCGTTTTAAGAAGTACATATTTGAACATATAA [XGTACX_site8040]” stands 7.18; under “CATAGGATTATACTTTTGGAATATTATTAAATATGT [XGTACX_negctrl_site75]”, 6.94; under “TTTATTTTTTAATGTTGTACAATGTTGTTTAATCAA [XGTACX_site6489]”, 7.19.

For “TTTTTTTCTTTTCAAACACACAATTGGTATATATTA [CACACA_site3320]”, the “gcPBM binding intensity (ln)” value stood at 6.9. Under “ACATGTCAAACATTTGCACACAAAAAAATAAAAATT [CACACA_site691]” stands 7.3; under “TATATACAAAAATGCACACGAAAAGTAATATATATA [CACACA_site4173]”, 8.37. Under “TATATAAAAATCAATTGTACTTTTTTTTTTTTTTTT [XGTACX_site7327]” stands 7.22; under “ATATATAAAATTATATGTACATATATAATATATATA [XGTACX_site529]”, 7.61; under “TATATATATATGTGCACACATATATAATATGTATAA [CACACA_site715]”, 9.37.

For the sequence “AAATAACACATATATACACACATATAACTATAATAT [CACACA_site7298]”, the “gcPBM binding intensity (ln)” value worked out at 7.04.

In the case of “TAGAACAAATAAAACACACACATATATATATATATG [CACACA_site2768]”, the “gcPBM binding intensity (ln)” value is 7.32. Turning to “GATAATTACGGACACACACACACACGCACAACTAAA [CACACA_site7254]”, the “gcPBM binding intensity (ln)” value came to 7.78. Under “ACTATCATTCATAGGTGTACCTAAATATATATATAT [XGTACX_site1696]” stands 9.41. Take “CGAATATATTCTAGACGTACTATATAATATATATAT [XGTACX_site4953]”: the “gcPBM binding intensity (ln)” value was 8.51.

Turning to TCTTTTTCTTCTTATGTGCACATCAATTATGCTTCT, the “gcPBM binding intensity (ln)” value was found to be 8.33. With “ATAATAAAAATATATACATGCATTATTATATATATA [TGCATGCA_site799]”, the “gcPBM binding intensity (ln)” value was 8.19. Under “CAACAATTTCGTCATACACACATTCAGAATATAGAT [CACACA_site7166]” stands 6.99; under “TTATTTCGAAGAAAATGTACATATATAAATATATAC [XGTACX_site3308]”, 6.92. Under “ATAATATTTTTTAATTGTACGTTCCATTTTTTTAAA [XGTACX_site1227]” stands 7.05; under “TACATACATATATTATGTACATATTTTATTTTTATT [XGTACX_site1642]”, 7.08; under “TTTCTTTTAATAATTAAATATTTATTTATGATTATA [TGCATGCA_negctrl_site30]”, 7. Under AAAAAAAATTCGTGTGTGCGCATATATAATATATAA stands 8.39; under “AAGCATACATCAAGCACACACACACCCACAGAGACA [CACACA_site4362]”, 7.15; under “TATGTAGTTTTAAAGTGTACTTATATATATTAATTG [XGTACX_site378]”, 7.22. As for “ATAAATATATATATCACACATATATAATTATATATA [CACACA_site4787]”, the “gcPBM binding intensity (ln)” value worked out at 7.18. Turning to “ATTGCAAGTTACTTGTGTACTTATAAGATTAAAAGA [XGTACX_site7696]”, the “gcPBM binding intensity (ln)” value stood at 7.01. Under “TAATAATACCCAAGCACACACACACCCATATATATA [CACACA_site4831]” stands 7.41; under “AATATAAATAAAAACACACACAATGGTACATATATA [CACACA_site3671]”, 7.02. Under “TACTGTGATAGCACCACACACGCAAAAGTGGGTATA [CACACA_site4749]” stands 7.97; under “TTTAAATCGTTAAAAACACACAAAAAAAATCAATTA [CACACA_site2519]”, 6.74. Under “TCTATACCAGAAAAGGGTACATATTTTGGATTGAAC [XGTACX_site8402]” stands 7; under “ATTATGCACCAACACACACACACACTCCTAAAAAAT [CACACA_site8822]”, 11.1; under “TCTTATTCAAACGTAAAACGAAGAAGAAAAAAAAAA [CACACA_negctrl_site149]”, 6.83. Consider “ATATACTATATTTTAACACACAAAAAAAAAAAATAT [CACACA_site1091]”, for which the “gcPBM binding intensity (ln)” value is 6.98. For “AAATTATATATATTACGTACATAGAACTTTACAGAA [XGTACX_site6646]”, the “gcPBM binding intensity (ln)” value was 7.18. “ATGTTACACCGACACACACACATAAAAAAACAAAAA [CACACA_site5750]”: the “gcPBM binding intensity (ln)” value came out at 7.37. Take “ATAAATAAATAAATAAATAAATATACATATACATAT [CACACA_negctrl_site205]”: the “gcPBM binding intensity (ln)” value worked out at 6.89. Turning to “TGGACAATTGTTTATTGTACTTAAATTTTATGTTCT [XGTACX_site8974]”, the “gcPBM binding intensity (ln)” value was 6.82. “AAGAAATAAAAAGAATGTACACAATATGTATTATAA [XGTACX_site4733]”: the “gcPBM binding intensity (ln)” value turned out to be 7.06. Under “AGCATTTTAAGTTATACACACATTTTGAATCTATAT [CACACA_site7599]” stands 6.89; under “CAAAAAACAACAGATCGTACAAAATATTATATATAT [XGTACX_site2285]”, 7.87. Under “TATCCATATTTGTTCACACACACACCGATTTATATA [CACACA_site5888]” stands 7.26.

With “TTGAAAAATGAGCACACACACAAATACATACATATT [CACACA_site3231]”, the “gcPBM binding intensity (ln)” value amounted to 7.05. Under “TTTTAACAAAAAAAAAGAAAAGAAAAGAAAATAATA [XGTACX_negctrl_site530]” stands 6.54; under “TTAACTCTGGAGAAAAGTACATAGTATCTGGTAACA [XGTACX_site4941]”, 6.94; under “TATATTTATATCCACTTCGTTTAACGCACAGATATA [CACACA_negctrl_site954]”, 7.06.

“ATTATAAAAATATATTGTACACAAAAATGTTTATAT [XGTACX_site5066]”: the “gcPBM binding intensity (ln)” value is 7.01. Under “TGAGATATAAAAATATGTACTTATGTATAAATATTT [XGTACX_site7746]” stands 6.83; under “CCAAATTTATTTTGTAGTACTCCGTATAGATCAACA [XGTACX_site7945]”, 6.95; under “AAGTTTTTTTTTAACACACACATAATAAAATAAATA [CACACA_site446]”, 7.01.

As for “TGGTTTCAATAATTAATAAAATATATTATTGTGAAA [CACACA_negctrl_site442]”, the “gcPBM binding intensity (ln)” value was determined as 6.74. Under “TCTAACATATAATATTCACACACATATATATATTAT [CACACA_site8236]” stands 7.15.

“ATAATATATTTATAATGTACAAACCATTTGTATTAA [XGTACX_site4370]”: the “gcPBM binding intensity (ln)” value was found to be 6.84. Under “ATTATTATTATATTTTGTACATATGTAACAATATAT [XGTACX_site5780]” stands 7.02.

With “TAAATATGTGTATGTAGTACATAGTGTTTTTTTTTT [XGTACX_site3748]”, the “gcPBM binding intensity (ln)” value was determined as 7.15.
